Assay results as given in US20250230234A1 (Sanofi, published 2025).

How the values were obtained:
[1] = target: T1, human GPRC5D (full length, on cells) (human, UniProt Q9NZD1 1-345); test: cell-based or functional assay
[2] = target: T1, human GPRC5D (full length, on cells); test: cell-based or functional assay; remark: listed apart in the source
[3] = target: T1, human GPRC5D (full length, on cells); test: cell-based or functional assay; remark: listed apart in the source
[4] = target: T1, human GPRC5D (full length, on cells); test: flow cytometry on MM.1R cells, apparent KD, mean
Experimental: (§1) FACS analyses were performed to determine the ability of the ADCC-enhanced antibodies to bind to cells that express GPRC5D on their surface.
(§2) Analyses were performed with Forecyt® Software. Cells were first gated in FSC (forward scatter)/SSC (side scatter). From the resulting cell population, single live cells were gated. Binding was analyzed as median fluorescence intensity (MFI) of the secondary antibody. Curves and apparent KD (“AppKD”) calculations were generated using GraphPad Prism Software (FIG. 2).

[5] = target: T1, human GPRC5D (full length, on cells); test: flow cytometry on MM.1R cells, apparent KD, N = 1
Experimental: as §1, §2

[6] = target: T1, human GPRC5D (full length, on cells); test: flow cytometry on MM.1R cells, apparent KD, N = 2
Experimental: as §1, §2

[7] = target: T1, human GPRC5D (full length, on cells); test: flow cytometry on MM.1R cells, apparent KD, N = 3
Experimental: as §1, §2

[8] = target: T2, cynomolgus GPRC5D expressed on Flp-In-293 cells (cynomolgus); test: flow cytometry on Flp-In-293 cells expressing cyGPRC5D, apparent KD
T2 construct: whole, on cells; also called cyGPRC5D
Experimental: as §1, §2

[9] = target: T1, human GPRC5D (full length, on cells); test: flow cytometry on Flp-In-293 cells expressing huGPRC5D, apparent KD
Experimental: as §1, §2

huFcγRIIa_R167 [10] = target: T3, huFcγRIIa_R167 (human, UniProt P12318 36-218, limits assumed); test: SPR Biacore T200, receptor captured by anti-His, single cycle kinetics
T3 construct: also called huFcγRIIA R167 polymorph
T3 sequence (looked up): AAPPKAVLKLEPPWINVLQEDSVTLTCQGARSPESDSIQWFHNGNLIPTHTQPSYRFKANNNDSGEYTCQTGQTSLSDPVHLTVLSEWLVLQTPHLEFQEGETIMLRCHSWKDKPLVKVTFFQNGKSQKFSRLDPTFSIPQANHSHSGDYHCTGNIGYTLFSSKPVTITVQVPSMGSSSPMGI

huFcRn [11] = target: T4, huFcRn (human, UniProt P55899 partial chain; P61769 partial chain); test: SPR Biacore T200, huFcRn on biotin CAPture, pH 5.9, mean of two; pH 5.9
T4 construct: also called human FcRn
Experimental: (§3) The interaction of the antibodies with human Fc receptors was analysed by SPR using a Biacore™ T200 instrument in the following test conditions: [0242] Immobilization of anti-His antibodies on a CM5 sensor chip via amine coupling for seven Fcγ receptors: huFcγRI, huFcγRIIa_H131, huFcγRIIa_R131, huFcγRIIb/c, huFcγRIIIa_V158, huFcγRIIIa_F158, huFcγRIIIb, or use of biotin CAPture for the huFcRn analysis [0243] Capture of each of the Fc receptors [0244] Affinity constant determination by single cycle kinetics (SCK) at concentrations ranging from 0.6 nM to 2000 nM [0245] Interaction with huFcRn was studied at pH5.9 and pH7.4

[12] = target: T1, human GPRC5D (full length, on cells); test: flow cytometry on HEK FITR cells expressing full-length hGPRC5D, apparent KD
Experimental: as §1, §2

[13] = target: T5, human GPRC5D truncated, N-terminal deletion of the first 15 residues (aa16-aa330), on HEK FITR cells (human, UniProt Q9NZD1 16-330); test: flow cytometry on HEK FITR cells expressing hGPRC5D (aa16-aa330), apparent KD
T5 construct: also called hGPRC5D (aa16-aa330)
Experimental: as §1, §2

[14] = target: T6, human GPRC5D truncated, N-terminal deletion of the first 20 residues (aa21-aa330), on HEK FITR cells (human, UniProt Q9NZD1 21-330); test: flow cytometry on HEK FITR cells expressing hGPRC5D (aa21-aa330), apparent KD
T6 construct: also called hGPRC5D (aa21-aa330)
Experimental: as §1, §2

huFcγRIIIa_F158 = target: T7, huFcγRIIIa_F158 (human, UniProt P08637 partial chain); test: SPR Biacore T200, receptor captured by anti-His, single cycle kinetics, mean of two
T7 construct: Recombinant receptor captured on the SPR chip through anti-His antibodies; also called human FcγRIIIa F158 polymorph; CD16a
Experimental: as §3

huFcγRIIIa_V158 = target: T8, huFcγRIIIa_V158 (human, UniProt P08637 partial chain); test: as above
T8 construct: Recombinant receptor captured on the SPR chip through anti-His antibodies; V at position 158 (mature numbering, as the name says); also called human FcγRIIIa V158 polymorph; CD16a
Experimental: as §3

huFcγRIIa_H167 = target: T9, huFcγRIIa_H167 (human, UniProt P12318 36-218, limits assumed); test: as above
T9 construct: also called huFcγRIIA H167 polymorph
T9 sequence (looked up): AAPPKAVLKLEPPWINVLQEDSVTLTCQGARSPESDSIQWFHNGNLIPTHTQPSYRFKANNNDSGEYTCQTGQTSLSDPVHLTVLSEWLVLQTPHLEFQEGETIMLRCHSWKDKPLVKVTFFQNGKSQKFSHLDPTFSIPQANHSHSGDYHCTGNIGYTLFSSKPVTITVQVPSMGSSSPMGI
Experimental: as §3

huFcγRIIa_R167 [15] = target: T3, huFcγRIIa_R167; test: as above
Experimental: as §3

huFcγRI = target: T10, huFcγRI (human, UniProt P12314 16-288); test: as above
T10 construct: also called human FcγRI
Experimental: as §3

huFcγRIIIb = target: T11, huFcγRIIIb (human, UniProt O75015 17-200); test: as above
T11 construct: also called human FcγRIIIb
Experimental: as §3

huFcRn [16] = target: T4, huFcRn; test: SPR Biacore T200, huFcRn on biotin CAPture, pH 5.9, mean of two; pH 5.9; fold change vs BM1 IgG1 wt

Chain of huFcγRIIIa_F158 (P08637 17-208 limits assumed): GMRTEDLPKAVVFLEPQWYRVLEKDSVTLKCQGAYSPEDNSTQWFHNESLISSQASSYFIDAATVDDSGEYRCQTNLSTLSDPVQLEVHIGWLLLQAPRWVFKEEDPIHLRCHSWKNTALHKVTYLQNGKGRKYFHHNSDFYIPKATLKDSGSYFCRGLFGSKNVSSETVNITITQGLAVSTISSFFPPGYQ
Chain of huFcγRIIIa_V158 (P08637 17-208 F176V limits assumed): as the sequence (P08637 17-208 limits assumed) above, with F160V counted along it
T1 sequence (Q9NZD1 whole entry): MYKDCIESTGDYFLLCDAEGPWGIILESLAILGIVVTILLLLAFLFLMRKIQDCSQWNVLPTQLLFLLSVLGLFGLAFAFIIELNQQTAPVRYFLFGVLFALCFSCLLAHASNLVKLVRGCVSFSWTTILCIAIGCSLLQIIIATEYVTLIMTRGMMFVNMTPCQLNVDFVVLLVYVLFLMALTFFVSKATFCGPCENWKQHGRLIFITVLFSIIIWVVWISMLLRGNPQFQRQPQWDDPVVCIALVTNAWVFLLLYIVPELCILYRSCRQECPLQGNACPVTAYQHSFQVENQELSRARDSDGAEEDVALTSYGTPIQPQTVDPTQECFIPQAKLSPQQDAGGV
Chain of huFcγRIIIb (O75015 17-200 limits assumed): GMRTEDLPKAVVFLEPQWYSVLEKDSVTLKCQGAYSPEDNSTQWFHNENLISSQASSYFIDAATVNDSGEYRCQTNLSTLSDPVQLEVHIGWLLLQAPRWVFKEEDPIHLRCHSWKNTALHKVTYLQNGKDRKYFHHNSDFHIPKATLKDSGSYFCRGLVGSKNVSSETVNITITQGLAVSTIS
Chain of huFcγRI (P12314 16-288 limits assumed): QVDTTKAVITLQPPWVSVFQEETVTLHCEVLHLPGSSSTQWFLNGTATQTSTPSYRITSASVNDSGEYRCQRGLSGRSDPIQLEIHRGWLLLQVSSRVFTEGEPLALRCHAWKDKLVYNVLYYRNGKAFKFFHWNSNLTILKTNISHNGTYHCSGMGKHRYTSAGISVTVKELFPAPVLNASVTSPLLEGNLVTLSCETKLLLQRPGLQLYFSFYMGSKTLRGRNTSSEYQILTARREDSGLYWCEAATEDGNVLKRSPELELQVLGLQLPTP

- relEC50 Median, ADCC (calcein release) against MM.1R cells with NK cells [1]: 5.4 ng/ml and 36 pM
- relEC50 Median, ADCC (calcein release) against EJM cells with NK cells [2]: 20.5 ng/ml and 141 pM
- relEC50 median, ADCC over four days (Incucyte) against MM.1R cells with NK cells [3]: 0.5 ng/ml and 3.45 pM
- Kd [4]: 0.025 nM
- Kd [5]: 0.035 nM
- Kd [6]: 0.017 nM
- Kd [7]: 0.024 nM
- Kd [8]: 1.3 nM
- Kd [9]: 2.2 nM
- binding result (huFcγRIIa_R167 [10]): no binding (tested: 0.6 nM to 2000 nM)
- Kd (huFcRn [11]): 408 nM
- Kd [12]: 1.3 nM
- Kd [13]: 0.8 nM
- Kd [14]: 1 nM
- Fold change vs BM1 IgG1 wt (huFcγRIIIa_F158): 8 fold
- Kd (huFcγRIIIa_F158): 29 nM
- NormB (huFcγRIIIa_F158): 37
- Fold change vs BM1 IgG1 wt (huFcγRIIIa_V158): 10 fold
- Kd (huFcγRIIIa_V158): 4.93 nM
- NormB (huFcγRIIIa_V158): 34
- Fold change vs BM1 IgG1 wt (huFcγRIIa_H167): 1 fold
- Kd (huFcγRIIa_H167): 2130 nM
- NormB (huFcγRIIa_H167): 13
- NormB (huFcγRIIa_R167 [15]): 2
- Fold change vs BM1 IgG1 wt (huFcγRI): 1 fold
- Kd (huFcγRI): 1.17 nM
- Fold change vs BM1 IgG1 wt (huFcγRIIIb): 10 fold
- Kd (huFcγRIIIb): 183 nM
- Fold change vs BM1 IgG1 wt (huFcRn [16]): 1 fold
B1: clone 11 in afucosylated format (anti-GPRC5D IgG1, afucosylated Fc) (antibody)
heavy: EVQLVESGGGLVQPGGSLRLSCAASGFTVSSNYMSWVRQAPGKGLEWVSVIYSGGSTYYADSVKGRFTISRDNSKNTLYLQMNSLRAEDTAVYYCARGFLAFGRYYYGMDVWGQGTTVTVSS[human IgG1 constant region not listed]
light: QSVLTQPPSASGTPGQRVTISCSGSSSNIGSNYVYWYQQLPGTAPKLLIYRNNQRPSGVPDRFSGSKSGTSASLAISGLRSEDEADYYCAAWDDSLSGDVFGGGTKLTVLGQPKAAPSVTLFPPSSEELQANKATLVCLISDFYPGAVTVAWKADSSPVKAGVETTTPSKQSNNKYAASSYLSLTPEQWKSHRSYSCQVTHEGSTVEKTVAPTECS
modifications: afucosylated Fc (GlymaxX technology)
notes: also called 11-afuco; 11 afuco

Where “and” joins values, the source holds several entries; their conditions need not be identical. Equal values may be shown once.
